Laboratory results reported in PubChem BioAssay AID1508624 (National Center for Advancing Translational Sciences (NCATS), 2021).
The whole screen tested about 48,000 compounds, of which about 120 (0.25%) were called active. Not shown: some 4% with an inconclusive outcome. The call rests on the fitted dose curve; in most records, active means well fitted activation curve with a large enough effect; inconclusive means small, poorly fitted or top-dose-only effect, or another doubt; inactive means no such curve, though single readings can be large or run the other way. Some of the results follow.

Test: Primary qHTS for Identification of Small Molecule Activators of Huntingtin-Antisense Promoter Activity; further: nearly all actives have a fitted effect of over 55% in size
Details: HEK293 HTT-AS promoter firefly luciferase reporter, 24 h; series mostly up to 57.5 µM; activity change, positive = activation: at the top concentration
In short: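 Firefly luciferase signal from promoter-reporter HEK293 cells was scaled between vehicle (0%) and zero RLU (-100%). Compounds were tested at final concentrations of up to 57.5 uM over 24 h at 37 degrees C. PTC124 at 50 uM final served as control inhibitor.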

Row | Structure (SMILES) | activity change, positive = activation
1 | CCN(CC)CCCNC(=O)c1ccc2c(c1)NC(=O)C(CS(=O)(=O)Cc1cccc(Br)c1)N2 (configuration not stated) | inactive: -21.9%
2 | Cc1nc2ccc(S(=O)(=O)NC(CC(C)C)C(=O)N3CCN(c4ccc(F)cc4)CC3)cc2s1 (configuration not stated) | inactive: -38.6%
3 | CN(C)c1ccc(CNS(=O)(=O)c2ccc3[nH]c4c(c3c2)CCCCC4)cc1 | inactive: -37.3%
4 | COc1ccc(Br)cc1CNC(=O)c1nn(-c2ccc(C)cc2)c(=O)c2c1c1ccccc1n2C | inactive: -2.28%
5 | NC(=O)NO | inactive
6 | Clc1ccccc1C(c1ccccc1)(c1ccccc1)n1ccnc1 | inactive
7 | Cc1ccccc1-c1noc(-c2cccnc2N(C)Cc2ccc(Cl)cc2)n1 | inactive: -20.1%
8 | COc1ccc(CCNC(=O)CSc2nnnn2-c2cccc(C(C)=O)c2)cc1OC | inactive: -13.6%
9 | CO/N=C1\CN(c2nc3c(cc2F)c(=O)c(C(=O)O)cn3C2CC2)CC1CN (configuration not stated) | inactive: -12.1%
10 | O=C(C1CC1)N1CCN(c2nc3c(Cl)cccc3s2)CC1 | inactive: 23.8%
11 | CCOC(=O)c1cccc(NC(=O)CCC(=O)N2CC(C)Oc3ccc(C)cc32)c1 (configuration not stated) | inactive: -15.7%
12 | CC[C@]1(O)C[C@@H]2CN(CCc3c([nH]c4ccccc34)[C@@](C(=O)OC)(c3cc4c(cc3OC)N(C)[C@H]3[C@@](O)(C(=O)OC)[C@H](OC(C)=O)[C@]5(CC)C=CCN6CC[C@]43[C@@H]65)C2)C1 | inactive
13 | Cc1ccc(C(=O)COC(=O)C(Cc2c[nH]c3ccccc23)NC(=O)c2ccc(C(C)(C)C)cc2)cc1 (configuration not stated) | inactive: -5.51%
14 | Cc1cc(C)cc(NC(=O)CSc2nc(=O)n(Cc3ccccn3)c3c2CCC3)c1 | inactive: -8.34%
15 | CCOC(=O)C(C)Sc1nc(-c2ccccc2Cl)cc(-c2ccccc2)c1C#N (configuration not stated) | inactive: 8.18%
16 | CCN(c1ccccc1)S(=O)(=O)c1ccc(-c2cc(C)no2)s1 | inactive: -31.4%
17 | Cc1ccc2[nH]c(=O)c(CN(C(=O)c3cccc(Cl)c3)C(C)(C)C)cc2c1 | inactive: 2.11%
18 | Cc1ccccc1C(=O)Nc1cccc(C(=O)OCc2cc(=O)n3ccsc3n2)c1 | inactive: 19.7%
19 | Cc1cccc(Oc2nc3c(c(=O)n(C)c(=O)n3C)n2Cc2ccccc2)c1C | inactive: 3.03%
20 | COc1ccc(-n2cc(-c3ccccc3)c3c(NC4CCCC4)ncnc32)cc1 | inactive: -22.7%
21 | C#C[C@]1(O)CC[C@@H]2[C@@H]3CCc4cc(O)ccc4[C@H]3CC[C@@]21C | inactive: -34.8%
22 | Cc1cccc(C)c1OCc1cc(=O)n2c3c(sc2n1)CCCC3 | inactive: -9.84%
23 | CC(C)CC(=O)Nc1cc(-c2ccccc2F)nn1-c1ccccc1 | inactive: -15.1%
24 | CC1=C(C(=O)Nc2ccc(C)cc2C)C(c2ccc(C(=O)O)cc2)n2nc(SCc3ccccc3)nc2N1 (configuration not stated) | inactive: -5.56%

Row | Structure (SMILES) | activity change, positive = activation
25 | CCOc1ccc(CNC(=O)CC(C)n2nc(C)cc2C)cc1OC (configuration not stated) | inactive: -14.6%
26 | Cc1ccc2c(c1)c1c(c(=O)n(-c3ccccc3)c(=O)n1CC(=O)c1ccc(F)cc1)n2C | inactive: -11.2%
27 | Cc1ccc(NC(=O)c2ccc(CN3CC(=O)N4CCCCC4C3=O)cc2)cc1 (configuration not stated) | inactive: 5.08%
28 | CCc1cccc(NC(=O)Cn2c(=O)n(-c3cccc(Cl)c3)c(=O)c3c2c2cc(C)ccc2n3C)c1 | inactive: -12.6%
29 | COc1ccc(OC)c(CNC(=O)c2cnc3c(C)cccn3c2=O)c1 | inactive: -3.35%
30 | CCc1nn2c(=O)cc(COC(=O)c3ccc(NC(=O)COc4ccc(C)cc4)cc3)nc2s1 | inactive: -11.7%
31 | Cn1c(SCC(=O)N2CCCc3ccccc32)ncc(C(=O)Nc2ccccc2)c1=O | inactive: -25.5%
32 | Cc1cc(C)cc(NC(=O)c2cnc3sc(N4CCCC4)nn3c2=O)c1 | inactive: -22.6%
33 | CCOC(=O)c1c(S(=O)(=O)N2CCC(C(=O)Nc3ccc(C)cc3C)CC2)c(C)n(C)c1C | inactive: 16.5%
34 | CCc1ccccc1NC(=O)c1nnn(Cc2ccc(Cl)cc2)c1N | inactive: -14.7%
35 | C[C@@H]1CC[C@@]2(OC1)OC1CC3C4CC=C5CC(O)CCC5(C)C4CCC3(C)C1[C@@H]2C (some centres not stated) | inactive: -0.428%
36 | COCCNC(=O)CSc1nc(-c2ccccc2)[nH]c1-c1ccc(OC)cc1 | inactive: -15.7%
37 | Cc1cc(CN2CCN(c3cccc(C)c3C)CC2)cs1 | inactive: -12.2%
38 | CCOC(=O)C1=C(CN2CCN(c3ccc(OC)cc3)CC2)NC(=O)NC1c1ccc(Cl)cc1 (configuration not stated) | inactive: -25%
39 | CCOc1ccc(NC(=O)C2CCCN(S(=O)(=O)c3c(C)noc3/C=C/N(C)C)C2)cc1 (configuration not stated) | inactive: -23.4%
40 | COc1cccc(-n2c(SCC(=O)Nc3nnc(C)s3)nc3c([nH]c4ccccc43)c2=O)c1 | inactive: -24.3%
41 | CC(C)Cn1c(=O)c2sccc2n2c(CCCC(=O)N3CCN(c4ccc(F)cc4)CC3)nnc12 | inactive: 3.02%
42 | Fc1ccc2[nH]c(-c3cccs3)cc2c1 | inactive: 14.7%
43 | O=C(Nc1cccc(C(F)(F)F)c1)c1cc2nc(-c3ccc4c(c3)OCO4)cc(C(F)(F)F)n2n1 | inactive: -6.36% [at 11.5 µM, percent change from vehicle, -100% = no light]
44 | NCCc1nc2cccnc2n1-c1ccccc1 | inactive: 0.756%
45 | Cc1ccc(-c2nc(CSc3nncn4c3cc3occc34)c(C)o2)cc1 | inactive: 1.7%
46 | COc1ccc(C)cc1NC(=O)N1CC(C)Sc2ccccc21 (configuration not stated) | inactive: -11.7%
47 | Cc1ccc(Cn2cc(C(=O)c3ccc4c(c3)OCO4)c(=O)c3cc(C)ccc32)cc1 | inactive: -28.3%
